In PubChem BioAssay AID488969 (Vanderbilt High Throughput Screening Facility, 2010) one finds z-score data, which are given here for 69 compounds.

The full ranking holds about 110,000 compounds; the median of “z-score” is about -0.1, and the highest 2% start at about 2. The list shows a part of the results. The source made the active and inactive calls.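 How the source made its calls: active means z-score in the third read window above 3 or below -3; inactive means the rest.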

This assay deals with Metabotropic glutamate receptor 8 (Rattus norvegicus) (UniProt P70579). The experiment in a line: rat mGluR8 modulators via GIRK flux, primary screen, cell-based, thallium flux, HTS (AID 488969). Conditions: HEK293 rat mGluR8, GIRK (G protein-gated inwardly rectifying potassium channel) thallium flux, FluoZin2; at 10 µM; stronger effect = higher value; submaximal glutamate (EC20) added with thallium.
Sequence of UniProt P70579 (P70579 whole entry, looked up): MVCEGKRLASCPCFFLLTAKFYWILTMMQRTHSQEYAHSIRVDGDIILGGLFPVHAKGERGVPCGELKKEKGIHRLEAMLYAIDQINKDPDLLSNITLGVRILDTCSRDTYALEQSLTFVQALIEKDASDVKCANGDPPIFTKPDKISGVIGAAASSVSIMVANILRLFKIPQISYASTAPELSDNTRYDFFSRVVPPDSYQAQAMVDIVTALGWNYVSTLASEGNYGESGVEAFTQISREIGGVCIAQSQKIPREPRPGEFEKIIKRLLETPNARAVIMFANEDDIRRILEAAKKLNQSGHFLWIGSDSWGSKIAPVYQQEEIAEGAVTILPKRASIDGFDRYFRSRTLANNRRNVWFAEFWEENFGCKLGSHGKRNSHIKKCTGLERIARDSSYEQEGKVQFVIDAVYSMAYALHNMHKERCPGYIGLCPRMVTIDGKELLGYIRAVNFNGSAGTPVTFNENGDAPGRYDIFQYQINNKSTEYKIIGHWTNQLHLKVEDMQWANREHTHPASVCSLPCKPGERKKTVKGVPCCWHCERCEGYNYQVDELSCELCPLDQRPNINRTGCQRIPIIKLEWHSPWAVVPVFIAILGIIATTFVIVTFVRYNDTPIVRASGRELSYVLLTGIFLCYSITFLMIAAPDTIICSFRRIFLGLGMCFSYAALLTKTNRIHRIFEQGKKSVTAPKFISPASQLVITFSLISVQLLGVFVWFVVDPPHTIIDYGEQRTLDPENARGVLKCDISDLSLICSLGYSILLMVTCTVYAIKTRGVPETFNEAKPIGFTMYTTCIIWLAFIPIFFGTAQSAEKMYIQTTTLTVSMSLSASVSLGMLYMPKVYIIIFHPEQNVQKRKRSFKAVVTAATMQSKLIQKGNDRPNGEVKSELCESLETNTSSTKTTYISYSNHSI
Take `O=C(Nc1ccc(N2CCOCC2)cc1)Nc1cnsn1`: the z-score was -0.053.

Regarding `O=C(CC(=O)N/N=C\c1cccc(Cl)c1Cl)NCc1ccccc1`, the z-score was -0.0129.

In the case of `C=CCN1C(=O)C(Cc2cccc(Cl)c2)S/C1=N/N=C/c1ccco1` (centres undefined), the z-score was -0.0843.

`COc1cc(C)nc(Oc2ccc(=O)n(C)n2)n1` registered a z-score of -0.196.

In the case of `O=C(/C=C/c1ccc(Cl)c(Cl)c1)n1cccn1`, the z-score was -0.323.

For `COc1ccc(-n2c(SC)nc(O)c(Cc3ccccc3)c2=O)cc1`, the z-score was -0.0522.

In turn, `Cc1ccc(C(=O)NCc2nnc(SCC(=O)Nc3ccccc3)n2C)cc1` displayed a z-score of -0.213.

Consider `O=C(Nc1ccccc1C(=O)N1CCOCC1)C1CCC(=O)N1C1CCCC1` (centres undefined), for which the z-score was -0.137.

Consider `CC1(C)CC(=O)C2=C(C1)OC1=C(C(=O)CC(C)(C)C1)C2c1ccc(O)cc1O`, for which the z-score worked out at 0.379.

Compound `Clc1ccc(COn2nnc3ccccc32)c(Cl)c1` showed a z-score of -0.471.

`OCCNc1nc2ccccc2[nH]1` yielded a z-score of -0.292.

Compound `COC(=O)c1cc(=O)n(Cc2ccc(OC)c(OC)c2)c(=Nc2ccc(F)cc2)s1` returned a z-score of -0.52.

Compound `CCOC(=O)C(C(=O)Nc1ccccc1)C1CCCCC1` (centres undefined) had a z-score of 0.245.

`Cc1cccc(N2CCN(C(=O)C(Cc3ccccc3)n3cccc3)CC2)c1C` (centres undefined) returned a z-score of 0.468.

`O=C(Nc1nnc(-c2ccc(Cl)cc2)o1)C1=COCCO1` came in with a z-score of 2.01.

In the case of `COc1ccc(C)cc1NC(=O)C1CCC(CNc2c(N3CCOCC3)c(=O)c2=O)CC1` (centres undefined), the z-score is -0.105.

In turn, `O=C(NCCc1c[nH]c2ccccc12)c1c(Cl)nc2sccn12` showed a z-score of 1.35.

Turning to `Cc1c(-n2c(SCC(=O)O)nnc2-c2ccccc2Cl)c(=O)n(-c2ccccc2)n1C`, the z-score was -0.254.

In turn, `O=S(=O)(c1ccc(Cl)nc1)N(Cc1ccccc1)Cc1ccccc1` returned a z-score of -0.613.

On to `O=C(Nn1c(O)c(C=C2N=c3ccccc3=N2)sc1=S)c1cccc(Cl)c1`, for which the z-score was found to be 0.0261.

As to `COc1cc(NC(=O)CN2CCN(c3ccccc3F)CC2)c(C)cc1[N+](=O)[O-]`, the z-score was found to be 0.159.

In turn, `CCOC(=O)CSc1nc(-c2ccccc2)cc(C(F)(F)F)n1` registered a z-score of -0.182.

`Cc1ccc(C(C(=O)NC2CCCC2)N(Cc2ccc(F)cc2)C(=O)c2csnn2)o1` (centres undefined): the z-score turned out to be 0.014.

Compound `Nc1cccc(C(=O)Nc2ccco2)c1` came in with a z-score of 0.211.

For `CCCCCC(=O)NC(=S)NNC(=O)CC`, the z-score was 0.0798.

The compound `O=C(Nc1ccccc1N1CCOCC1)c1ccccc1NS(=O)(=O)c1ccc(F)c(F)c1` came in with a z-score of -0.0267.

Consider `Cc1cc(C(=O)COC(=O)c2cccs2)c(C)n1-c1c(C)n(C)n(-c2ccccc2)c1=O`, for which the z-score came out at 0.256.

Compound `CC1=CC(C)=Nc2ccccc2N1` returned a z-score of 0.366.

`O=C(O)CC1(CC(=O)Nc2ccc3ccccc3c2)CCCCC1` showed a z-score of -0.142.

On to `COc1ccccc1NC(=O)CCN1CC(C)OC(C)C1` (centres undefined), for which the z-score was -0.136.

On to `O=S(=O)(c1ccc(Br)cc1)c1nc(-c2ccccc2)oc1NCc1cccnc1`, for which the z-score is -0.264.

In turn, `Cc1n[nH]c(C)c1S(=O)(=O)N1CCCCCC1` yielded a z-score of 0.35.

As to `COc1cccc(C(=O)Nc2ccc(NC(=O)C(C)C)nc2)c1`, the z-score was found to be 0.794.

`O=C(Nn1c(=O)[nH]c2ccccc2c1=O)c1ccco1` came in with a z-score of 0.0633.

In turn, `O=C(CSC1CC(=O)N(CCc2ccccc2)C1=O)Nc1cccc(Cl)c1` (centres undefined) came in with a z-score of 0.182.

Compound `CCc1ccccc1NC(=O)/C(C#N)=C/c1ccc(Sc2ccccc2)o1` showed a z-score of 0.568.

In turn, `COc1cccc(CNCCNC(=O)c2ccco2)c1OC` returned a z-score of 1.75.

Take `CCCN(CCC)C(=O)CSc1nc2ccccc2c(=O)n1CC1COc2ccccc2O1` (centres undefined): the z-score is -0.405.

Turning to `Cn1cc(CC(=O)N2CCN(c3ccc(Cl)cc3)CC2)c2ccccc21`, the z-score is -0.261.

Turning to `Cc1cc(C)n(-c2ccc(C(=O)Nc3cc(C(F)(F)F)ccc3N3CCOCC3)cc2)n1`, the z-score is -0.115.

`COc1ccc(CN(C(=O)CNC(=O)c2ccco2)C(C(=O)NC2CCCC2)c2ccco2)cc1` (centres undefined) returned a z-score of -0.116.

Turning to `COc1ccc(S(=O)(=O)N2CCN(C(=O)c3ccco3)CC2)cc1OC`, the z-score was -0.51.

For the compound `COC(=O)c1ccc(Oc2nc(C(N)=O)cc(-c3ccccc3)n2)cc1`, the z-score is 0.535.

As to `CCOc1cc(/C=N\Nc2ccc([N+](=O)[O-])cc2)ccc1OCC(=O)Nc1ccc(C)c(C)c1`, the z-score is -0.364.

On to `CC(=O)Oc1ccc(NC(=O)CSc2ccccc2)cc1`, for which the z-score was determined as 0.0117.

Regarding `CCOc1ccccc1NS(=O)(=O)c1cccs1`, the z-score worked out at 0.00014.

In turn, `COc1ccc(NC(=O)c2ccc3ccccc3c2)cc1NS(=O)(=O)c1ccc(F)cc1` had a z-score of -0.319.

The compound `CN(C)c1oc(-c2ccccc2Cl)nc1C#N` yielded a z-score of -0.276.

In the case of `O=C(Cn1cnc2ccccc21)NC(c1ccccc1)c1ccccc1`, the z-score was -0.196.

On to `COc1ccc(OC)c(CNC(=O)CCNC(=O)Cn2ccc3ccccc3c2=O)c1`, for which the z-score came out at 0.226.

`CC1CCN(c2nnc(NC(=O)Cn3c(=O)oc4ccccc43)s2)CC1` displayed a z-score of -0.363.

`COc1cccc(C(=O)NC2CC3CCCC(C2)N3CC(=O)Nc2ccccc2)c1` (centres undefined) registered a z-score of -0.453.

Consider `Cc1ccc(CN(c2ccc(C(=O)Nc3ccc4c(c3)OCO4)cc2)S(C)(=O)=O)cc1`, for which the z-score came out at 0.0406.

Consider `Cn1cc(Cl)c(C(=O)N/N=C/c2ccc(OS(=O)(=O)c3ccccc3)cc2)n1`, for which the z-score is -1.67.

In turn, `COc1cccc(-n2cnnn2)c1` gave a z-score of -0.275.

Take `COc1ccccc1NC(=S)NCCc1ccc(Cl)cc1`: the z-score was active: 3.06.

In turn, `Cc1nn(CCOc2ccccc2)c(=O)n1-c1c(F)cccc1F` displayed a z-score of -0.00666.

`COc1ccc(NS(=O)(=O)c2ccc(-n3nnc4ccccc43)c([N+](=O)[O-])c2)cc1` displayed a z-score of -0.0539.

Compound `CCCCN(c1ccccc1)S(=O)(=O)c1ccc2c(c1)CCN2C(=O)CCC(=O)O` came in with a z-score of -0.65.

Compound `C=C(C)CSc1cc(C)c(C#N)c2nc3ccccc3n12` gave a z-score of -0.665.

In turn, `Cc1cc2oc(=O)cc(C)c2c(=O)o1` showed a z-score of 0.681.

`CCN(CC(=O)NC(c1ccccc1)c1ccccc1)Cc1nc2ccccc2c(=O)[nH]1` displayed a z-score of -0.654.

In turn, `CCOc1ccccc1C(=O)NCCCn1ccnc1` came in with a z-score of 0.199.

Turning to `CC(=O)Nc1ccc(S(=O)(=O)N2CCN(c3ccc([N+](=O)[O-])c(NCCN4CCOCC4)c3)CC2)cc1`, the z-score was -0.0274.

For `CCOc1ccc(C(=O)N[C@H](C(=O)Nc2cccc(S(=O)(=O)N3CCCCC3)c2)C(C)C)cc1`, the z-score is -0.0313.

In turn, `Cc1cccc(C(C)C)c1NC(=O)c1ccc(CN(c2ccccc2)S(=O)(=O)c2ccccc2)cc1` came in with a z-score of -0.0858.

For the compound `Cc1ccc(NC(=O)C(c2ccc(Cl)cc2)N2CCCCC2)cc1` (centres undefined), the z-score is -0.13.

For `Cc1oc2cc(O)cc(O)c2c(=O)c1-c1ccc2c(c1)OCCCO2`, the z-score worked out at 0.257.

In the case of `CCOc1ccc(N(CC(=O)NCc2ccc(OC)cc2)S(=O)(=O)c2c(C)noc2C)cc1`, the z-score was -0.0221.
